Test results published in the supplement of paper PMC8728848.
The list shows a part of the results.

What was measured:
Experiment in all cases: glycan array binding signal (z-score within array); higher = stronger binding
Settings in all cases: glycan notation: IUPAC condensed, linker removed
[1] = target: Gal(b1-4)GlcNAc(b1-2)[Gal(b1-4)GlcNAc(b1-4)]Man(a1-3)[Gal(b1-4)GlcNAc(b1-2)Man(a1-6)]Man(b1-4)GlcNAc(b1-4)GlcNAc
How it was run: (§1)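 The binding signal is a Z-score computed within each array. Data were drawn from 3228 arrays in the Consortium for Functional Glycomics database, restricted to those with a known protein sequence. Scores were averaged over arrays of the same protein sequence at different concentrations or buffers, and over linkers, and negative values can be taken as non-binding.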

[2] = target: Gal(b1-4)GlcNAc(b1-2)[Gal(b1-4)GlcNAc(b1-4)]Man(a1-3)[Gal(b1-4)GlcNAc(b1-2)[Gal(b1-4)GlcNAc(b1-6)]Man(a1-6)]Man(b1-4)GlcNAc(b1-4)GlcNAc
How it was run: as §1

[3] = target: Gal(b1-4)GlcNAc(b1-2)[Gal(b1-4)GlcNAc(b1-4)]Man(a1-3)[GlcNAc(b1-4)][Gal(b1-4)GlcNAc(b1-2)Man(a1-6)]Man(b1-4)GlcNAc(b1-4)GlcNAc
How it was run: as §1

[4] = target: Gal(b1-4)GlcNAc(b1-2)[Gal(b1-4)GlcNAc(b1-4)]Man(a1-3)[GlcNAc(b1-4)][Gal(b1-4)GlcNAc(b1-2)[Gal(b1-4)GlcNAc(b1-6)]Man(a1-6)]Man(b1-4)GlcNAc(b1-4)GlcNAc
How it was run: as §1

[5] = target: Gal(b1-4)GlcNAc(b1-2)[Gal(b1-4)GlcNAc(b1-4)]Man(a1-3)[GlcNAc(b1-4)][Gal(b1-4)GlcNAc(b1-2)[Gal(b1-4)GlcNAc(b1-6)]Man(a1-6)]Man(b1-4)GlcNAc(b1-4)[Fuc(a1-6)]GlcNAc
How it was run: as §1

[6] = target: Gal(b1-4)GlcNAc(b1-2)[Gal(b1-4)GlcNAc(b1-6)]Man(a1-6)[Gal(b1-4)GlcNAc(b1-2)Man(a1-3)]Man(b1-4)GlcNAc(b1-4)GlcNAc
How it was run: as §1

[7] = target: Gal(b1-4)GlcNAc(b1-2)[Gal(b1-4)GlcNAc(b1-6)]Man(a1-6)[Gal(b1-4)GlcNAc(b1-2)Man(a1-3)]Man(b1-4)GlcNAc(b1-4)[Fuc(a1-6)]GlcNAc
How it was run: as §1

[8] = target: Gal(b1-4)GlcNAc(b1-2)[Gal(b1-4)GlcNAc(b1-6)]Man(a1-6)[GlcNAc(b1-4)][Gal(b1-4)GlcNAc(b1-2)Man(a1-3)]Man(b1-4)GlcNAc(b1-4)GlcNAc
How it was run: as §1

[9] = target: Gal(b1-4)GlcNAc(b1-3)Gal(b1-3)GlcNAc
How it was run: as §1

[10] = target: Gal(b1-4)GlcNAc(b1-3)Gal(b1-4)Glc
How it was run: as §1

[11] = target: Gal(b1-4)GlcNAc(b1-3)Gal(b1-4)GlcNAc
How it was run: as §1

[12] = target: Gal(b1-4)GlcNAc(b1-3)Gal(b1-4)GlcNAc(b1-3)Gal(b1-4)GlcNAc
How it was run: as §1

[13] = target: Gal(b1-4)GlcNAc(b1-3)Gal(b1-4)[Fuc(a1-3)GlcNAc(b1-6)]Gal(b1-4)Glc
How it was run: as §1

[14] = target: Gal(b1-4)GlcNAc(b1-3)Gal(b1-4)[Fuc(a1-3)]GlcNAc(b1-3)Gal(b1-4)[Fuc(a1-3)]GlcNAc
How it was run: as §1

[15] = target: Gal(b1-4)GlcNAc(b1-3)GalNAc
How it was run: as §1

[16] = target: Gal(b1-4)GlcNAc(b1-3)[Gal(b1-4)GlcNAc(b1-6)]Gal(b1-4)GlcNAc
How it was run: as §1

[17] = target: Gal(b1-4)GlcNAc(b1-3)[Gal(b1-4)GlcNAc(b1-6)]GalNAc
How it was run: as §1

[18] = target: Gal(b1-4)GlcNAc(b1-3)[GlcNAc(b1-6)]Gal(b1-4)GlcNAc
How it was run: as §1

[19] = target: Gal(b1-4)GlcNAc(b1-6)Gal(b1-4)GlcNAc
How it was run: as §1

[20] = target: Gal(b1-4)GlcNAc(b1-6)Gal(b1-4)GlcNAc(b1-6)GalNAc
How it was run: as §1

[21] = target: Gal(b1-4)GlcNAc(b1-6)GalNAc
How it was run: as §1

[22] = target: Gal(b1-4)GlcNAc(b1-6)[Gal(b1-3)]GalNAc
How it was run: as §1

[23] = target: Gal(b1-4)GlcNAc6P
How it was run: as §1

[24] = target: Gal(b1-6)Gal
How it was run: as §1

[25] = target: Gal3S(b1-3)GalNAc
How it was run: as §1

[26] = target: Gal3S(b1-3)GlcNAc
How it was run: as §1

[27] = target: Gal3S(b1-3)[Fuc(a1-4)]GlcNAc
How it was run: as §1

[28] = target: Gal3S(b1-4)Glc
How it was run: as §1

[29] = target: Gal3S(b1-4)Glc6S
How it was run: as §1

[30] = target: Gal3S(b1-4)GlcNAc
How it was run: as §1

[31] = target: Gal3S(b1-4)GlcNAc6S
How it was run: as §1

[32] = target: Gal3S(b1-4)[Fuc(a1-3)]Glc
How it was run: as §1

[33] = target: Gal3S(b1-4)[Fuc(a1-3)]Glc6S
How it was run: as §1

[34] = target: Gal3S4S(b1-4)GlcNAc
How it was run: as §1

[35] = target: Gal3S6S(b1-4)GlcNAc
How it was run: as §1

[36] = target: Gal3S6S(b1-4)GlcNAc6S
How it was run: as §1

[37] = target: Gal4S(b1-4)GlcNAc
How it was run: as §1

B1: Gal 8 (Homo sapiens), O00214_1 (protein)
chain: MMLSLNNLQNIIYNPVIPFVGTIPDQLDPGTLIVIRGHVPSDADRFQVDLQNGSSMKPRADVAFHFNPRFKRAGCIVCNTLINEKWGREEITYDTPFKREKSFEIVIMVLKDKFQVAVNGKHTLLYGHRIGPEKIDTLGIYGKVNIHSIGFSFSSDLQSTQASSLELTEISRENVPKSGTPQLRLPFAARLNTPMGPGRTVVVKGEVNANAKSFNVDLLAGKSKDIALHLNPRLNIKAFVRNSFLQESWGEEERNITSFPFSPGMYFEMIIYCDVREFKVAVNGVHSLEYKHRFKELSSIDTLEINGDIHLLEVRSW
With B1 the “glycan array binding signal (z-score)” value [1] was -0.184, the “glycan array binding signal (z-score)” value [2] was 0.323 and the “glycan array binding signal (z-score)” value [3] was 0.171. The “glycan array binding signal (z-score)” value [4] was -0.175, the “glycan array binding signal (z-score)” value [5] was -0.19 and the “glycan array binding signal (z-score)” value [6] was -0.172. For the same binder, the “glycan array binding signal (z-score)” value [7] was 0.021, the “glycan array binding signal (z-score)” value [8] was -0.251 and the “glycan array binding signal (z-score)” value [9] was 1.38. For the same binder, the “glycan array binding signal (z-score)” value [10] was 2.32, the “glycan array binding signal (z-score)” value [11] was 0.79 and the “glycan array binding signal (z-score)” value [12] was 0.614. For the same binder, the “glycan array binding signal (z-score)” value [13] was -0.3, the “glycan array binding signal (z-score)” value [14] was -0.194 and the “glycan array binding signal (z-score)” value [15] was -0.231. The “glycan array binding signal (z-score)” value [16] was -0.182, the “glycan array binding signal (z-score)” value [17] was -0.238 and the “glycan array binding signal (z-score)” value [18] was -0.239. For the same binder, the “glycan array binding signal (z-score)” value [19] was -0.256, the “glycan array binding signal (z-score)” value [20] was 0.004 and the “glycan array binding signal (z-score)” value [21] was -0.191. The “glycan array binding signal (z-score)” value [22] was -0.212, the “glycan array binding signal (z-score)” value [23] was -0.233 and the “glycan array binding signal (z-score)” value [24] was -0.241. For the same binder, the “glycan array binding signal (z-score)” value [25] was -0.043, the “glycan array binding signal (z-score)” value [26] was 0.085 and the “glycan array binding signal (z-score)” value [27] was -0.222. The “glycan array binding signal (z-score)” value [28] was 0.022, the “glycan array binding signal (z-score)” value [29] was 1.87 and the “glycan array binding signal (z-score)” value [30] was -0.23. For the same binder, the “glycan array binding signal (z-score)” value [31] was -0.173, the “glycan array binding signal (z-score)” value [32] was -0.224 and the “glycan array binding signal (z-score)” value [33] was -0.138. The “glycan array binding signal (z-score)” value [34] was -0.119, the “glycan array binding signal (z-score)” value [35] was -0.243 and the “glycan array binding signal (z-score)” value [36] was -0.201. For the same binder, the “glycan array binding signal (z-score)” value [37] was -0.21.
